# Measured values from the supplement of paper PMC11417369.
# ± gives the standard deviation of the averaged measurements. Some of the results follow.
# System: PfAP2-LT AP2 domain (GST-tagged)
# Assay: gcPBM binding intensity (ln(normalized median fluorescence intensity)); higher = stronger DNA binding
# Method in brief: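 Using an Agilent 4 × 180k array, primer-extended double-stranded 36-bp intergenic genomic probes and negative controls were exposed for 1 h to GST-fused P. falciparum DNA-binding domains expressed in E. coli. Binding was carried out in 1× PBS with 1% milk, 0.2 mg/ml BSA, 0.5% salmon testes DNA and 0.03% Triton X-100, and protein was detected with Alexa488 anti-GST antibody and a 488 nm scan. Binding intensity is the highest Masliner-normalised natural-log median intensity across replicate spots of either probe orientation.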
row,Sequence,gcPBM binding intensity (ln)
1,ATATAAGTGTATCTAACACACAAATATATAAAAATG [CACACA_site1956],9.03 ± 0.38
2,ATAATTATATGGCTAGCACACAATAAATAATTATAT [CACACA_site3815],9 ± 0.45
3,ACAAGTTAAAATATTACACACATATAAATATTTATA [CACACA_site7467],8.81 ± 0.43
4,AAGAAAAATATTCGTGTGCACAGAAGTATATGTGTG [GTGCAC_site9814],9.36 ± 0.44
5,TATTGTAAGAAAGGCACACAGATAAAATTATTATAT [CACACA_site2921],8.83 ± 0.51
6,ATTTTTGTAAATACATGTACATATATATGCATATCC [XGTACX_site6353],9.14 ± 0.53
7,TTTCGCTTTATTTATGCATGCAAATAAGTTGATATT [TGCATGCA_site724],8.84 ± 0.22
8,TACATATATACATACACACACATATAACCAATGTAG [CACACA_site2192],9.55 ± 0.23
9,AGTAATAGTTTGTGCACACTCAAGTATATCATAGAT [CACACA_site6082],9.24 ± 0.29
10,TTTTCAATATATAGAGCATGCGCATCCACAAATATG [TGCATGCA_site380],8.77 ± 0.45
11,TGCCAATTTTTAAAAACATGCATTATATAGAATAAA [TGCATGCA_site872],8.38 ± 0.42
12,AATGGAAAATTATTAACACACACATATAAATATATA [CACACA_site7899],9.27 ± 0.34
13,ATTAAAAGGGGGTTTACATGTGTGTGTGTAATATGG [TGCATGCA_negctrl_site293],9.91 ± 0.15
14,TACAACAATTTTTGCACACACCAAAACATAAAATAA [CACACA_site4964],9.26 ± 0.36
15,ATATTTCATCTAGCTACACACATATAATAAATTATT [CACACA_site4094],9 ± 0.44
16,TTTTGATTGTTATTCGTATATTATTTTATGATTATA [CACACA_negctrl_site1593],8.74 ± 0.47
17,CAAAATATTTTTATAACACACATATTTATAACGTGC [CACACA_site6659],8.88 ± 0.36
18,AATAATCATTTTCATAGTACGTATGATTAGAAAAAA [XGTACX_site2589],8.63 ± 0.47
19,TTATACATTTGTAAATAAATAGAACTGTATTTTTTT [TGCATGCA_negctrl_site397],8.29 ± 0.46

row,Sequence,gcPBM binding intensity (ln)
1,TATATACCGATATATACACACAAATACATAAGCTTC [CACACA_site6760],9.18 ± 0.36
2,AATATAAACAGACACACACACATATAGATTTATATT [CACACA_site7382],9.87 ± 0.35
3,GGATAGATAATAGGGGGTACAAATATACATACATAT [XGTACX_site5089],9.38 ± 0.2
4,TTTTAATGAAAACACACACACACATATATATATATA [CACACA_site5295],9.93 ± 0.18
5,GAAAATAGAAAAAGCACACATATATTTTGGAATGTA [CACACA_site551],8.89 ± 0.54
6,CTAAATATATAAAAAAGTACAAAATAAATAATAATT [XGTACX_site2442],8.79 ± 0.46
7,TATATATTATGACCACCACACACCTATACACATAAC [CACACA_site8773],9.48 ± 0.24
8,TATTTCTGATTATTTTGTACACATTATATATAATGC [XGTACX_site6990],8.93 ± 0.38
9,TATTATATAACAAAAAGTACTTATAAGAAATATATA [XGTACX_site5467],8.6 ± 0.46
10,TAATAAGTACCTTTTGCATGTGGCACGCTTTTTTTT [TGCATGCA_site573],8.95 ± 0.47
11,AAATGAATTATATAATATATATAAATAAATAAATAA [CACACA_negctrl_site359],8.62 ± 0.49
12,TTTTTTTTTTTTACCTGTACATGTCAGCAAACTTTT [XGTACX_site1171],8.85 ± 0.61
13,GGAGAATAGTGGAAAACACACACGTTTGAGATATGG [CACACA_site1168],9.14 ± 0.42
14,CAAAAACGGAAGTGGTGTACCGATATTATATAAACA [XGTACX_site4962],9.02 ± 0.53
15,AACATTATAAGACACACACACACATATATATATATA [CACACA_site8259],10.3 ± 0.3
16,ACTCTTAAAATGTATTGTACATAATTTTTACAAGGG [XGTACX_site6611],8.63 ± 0.4
17,AGGTAGTTCTGTATCACACACATATATATATATATA [CACACA_site2214],9.825 ± 0.0071
18,AAAAAAAATATATAAACACACATATTTATATACTCA [CACACA_site4984],8.72 ± 0.42
19,ACATATAATAAAAAATGTACACACATAAGAAAATTT [XGTACX_site6153],9.16 ± 0.38

row,Sequence,gcPBM binding intensity (ln)
1,ACTATAAATATATAAATATATATATATATATATATA [GTGCAC_negctrl_site65],9.24 ± 0.38
2,TTTCCATTATGATATAGTACATAAATATATGTAATA [XGTACX_site6992],8.43 ± 0.36
3,TTGTGTGTATGTATACATATATATATTGAGACGAAT [TGCATGCA_negctrl_site382],9.22 ± 0.31
4,TATGTCAATTTTCATACATGCGCATAATCTTTATTT [TGCATGCA_site807],8.98 ± 0.45
5,ATAAATAAGATACGTACACACATATACAAAATATAC [CACACA_site3661],9.27 ± 0.39
6,TAAATACACTGTAGCGCACACGGCCAAAAAAAAAAA [CACACA_site1818],9.21 ± 0.38
7,TACTATCTATACAATACACACAAAAAAAAAAAAATA [CACACA_site3981],8.95 ± 0.41
8,TTATTATCCTATATTTCTTTTCCTTCTTCAAAATTA [CACACA_negctrl_site1314],8.38 ± 0.48
9,TAATATCATTTATATTGTACTATAACAAAATCTATA [XGTACX_site7700],8.45 ± 0.48
10,AATTGTAAATTGGGCACTTATAAAAATGAACAAATA [CACACA_negctrl_site1583],8.81 ± 0.46
11,TCATAAAGAACAAAGTGTACCTATATATTACATACA [XGTACX_site7595],8.67 ± 0.4
12,TATAAAACCCTACTGTTTCTTCTTTATTGATATATT [TGCATGCA_negctrl_site285],8.7 ± 0.53
13,AAAGTTTTTATACATACACACCTATAAATTAAGTGC [CACACA_site7198],8.81 ± 0.32
14,GAAAGAATAAAATAAACATGCAAATAAAACATAAAA [TGCATGCA_site471],9.06 ± 0.52
15,TTTTATTTTTTCTCACGTACAAATATATAATTTTTT [XGTACX_site6952],8.57 ± 0.47
16,ATGAATATAAAATATACACACTTATATATCGAATGA [CACACA_site6240],8.84 ± 0.38
17,TACATATGGCACATATGTACACACGTATAGATAATA [XGTACX_site4123],9.1 ± 0.32
18,AATATATCCTATTCGAACAAAAATACATGCACATAT [CACACA_negctrl_site1058],8.91 ± 0.35
